Assay results published in PubChem BioAssay AID1346428 (National Center for Advancing Translational Sciences (NCATS), 2018).
Among all 48,000 compounds or so, about 1,200 (2.5%) were called active. Not shown: some 2% with an inconclusive outcome.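 The calls were made as follows: active = activation of at least 60% and not above a set upper limit (about 1 call in 100 departs from these limits); inconclusive = activation of 40% to 60%, or above that upper limit; inactive = activation under 40%.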 The list shows a part of the results.

biological target: Probable G-protein coupled receptor 32 (Homo sapiens) (UniProt O75388); assay: qHTS for Agonists of Human Resolvin D1 Receptor DRV1; conditions: CHO-K1 GPR32 beta-arrestin PathHunter luminescence, 90 min; at 76.9 µM; hits give high values; zero percent set by DMSO-only wells; also: 0% is about no effect
Chain of UniProt O75388 (O75388 whole entry, looked up, the tested form may be a part): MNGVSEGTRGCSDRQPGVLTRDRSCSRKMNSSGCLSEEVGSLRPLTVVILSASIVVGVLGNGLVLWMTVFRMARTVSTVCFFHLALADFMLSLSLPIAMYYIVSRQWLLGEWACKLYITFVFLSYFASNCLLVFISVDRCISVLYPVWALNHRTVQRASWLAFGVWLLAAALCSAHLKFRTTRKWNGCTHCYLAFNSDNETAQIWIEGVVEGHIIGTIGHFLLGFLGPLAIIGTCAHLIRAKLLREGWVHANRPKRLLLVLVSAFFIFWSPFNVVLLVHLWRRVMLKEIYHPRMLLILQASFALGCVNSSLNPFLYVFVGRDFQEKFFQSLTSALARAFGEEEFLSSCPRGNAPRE
Method in brief: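 PathHunter enzyme-fragment complementation, CHO-K1 GPR32 stable line; 2,500 cells/well, overnight attach; cpd 90 min 37 °C 5% CO2; detection reagent 1 h RT; chemiluminescence. DMSO = EC0.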

| Compound | activation |
| --- | --- |
| CCN(CC)C(=O)c1cc(-c2ccc(Cl)cc2)on1 | inactive: 21.2% |
| CCN(C(=O)Cn1nnc2sc(-c3ccccc3)cc2c1=O)c1cccc(C)c1 | inactive: -2.89% |
| Cc1cc(NC(=O)CCNS(=O)(=O)c2ccc3c(c2)oc(=O)n3C)ccc1Br | inactive: 11.7% |
| O=C(Nc1cccc(Cl)c1)c1ccc(F)c(S(=O)(=O)N2CCC3(CC2)OCCO3)c1 | inactive: 1.14% |
| O=C(Nc1ccc(F)cc1F)c1cc2nc(-c3ccco3)cc(C(F)(F)Cl)n2n1 | inactive: 6.83% |
| COc1ccc(NC(=O)CCn2c(=O)c3cccn3c3ccccc32)c(OC)c1 | inactive: -22.8% |
| CCC1CN(C(=O)Nc2cccc3c2CCCC3)c2ccccc2O1 (centres undefined) | inactive: -28.8% |
| COC(=O)c1cnn2c(C)c(Cc3c(C)cc(C)cc3C)c(C)nc12 | inactive: -2.18% |
| Cc1ccc(CNC(=O)CN(c2ccc(C)cc2)S(=O)(=O)c2c(C)nn(C)c2C)cc1 | inactive: -1.67% |
| CCN(CC)S(=O)(=O)c1ccc2c(c1)c(=O)c(C(=O)N1CCN(c3cccc(C)c3)C(C)C1)cn2C (centres undefined) | inactive: 5.14% |
| Cc1ccc2c(=O)cc(C(=O)Nc3ccc(S(=O)(=O)N(C)Cc4ccccc4)cc3)oc2c1 | inactive: 1.05% |
| CCCCn1c(C(C)NC(=O)c2ccccc2)nc2ccccc21 (centres undefined) | inactive: -1.08% |
| CC(=O)c1ccc(NC(=O)CN(C)S(=O)(=O)c2cccc3nsnc23)cc1 | inactive: 5.59% |
| COc1ccccc1-c1cc2nc(C)c(CCC(=O)NCc3cccc(Cl)c3)c(C)n2n1 | inactive: 1.19% |
| COc1ccc(N2CC(NC(=O)C3CC3)CC2=O)cc1OC (centres undefined) | inactive: 2.64% |
| CCOC(=O)C1CCCN(CCC(=O)Nc2cccc(C)c2)C1 (centres undefined) | inactive: -1.52% |
| O=C(Nc1ccc(Cl)cc1)N1CCN(c2ccc3nnc(-c4ccccc4)n3n2)CC1 | inactive: 18.5% |
| CN(C)C(=O)Nc1ccc(Cl)c(Cl)c1 | inactive: 6.32% |
| CCOc1ccc(NC(=O)c2cc3c(=O)n(Cc4cccs4)ccc3nc2C)cc1 | inactive: -14.1% |
| Cn1c(=O)c2c(c3ccccc31)OC(=O)CC2c1cccc(F)c1 (centres undefined) | inactive: 4.11% |
| O=C(C1CCC(Cn2c(=O)c3sccc3n(Cc3ccccc3F)c2=O)CC1)N1CCCCC1 (centres undefined) | inactive: 16.3% |

| Compound | activation |
| --- | --- |
| COc1ccccc1N(CC(=O)NCCSCc1cccc(Cl)c1)S(C)(=O)=O | active: 87.7% |
| CCCCNC(=O)C1CCN(S(=O)(=O)c2ccc3c(ccn3CC)c2)CC1 | inactive: 4.59% |
| Cc1cc(C)c(NC(=O)c2ncoc2-c2ccco2)c(C)c1 | inactive: 0.0313% |
| CC(=O)N1C[C@H](O)C[C@H]1C(=O)O | inactive: -5.13% |
| CC(C)NC(=O)C1CCN(C(=O)c2cc3sccc3n2Cc2ccc(Cl)cc2)CC1 | inactive: 8.25% |
| COc1ccc2c(CNC3CCCCCC3)c(C(=O)O)n(Cc3cccc(F)c3)c2c1 | inactive: -7.58% |
| O=S(=O)(NCCc1csc2nc(-c3ccccc3)nn12)c1ccc(Cl)s1 | inactive: 11.7% |
| Cc1cc(C)cc(NC(=O)CSc2nnc(-c3cc4occc4n3C)n2-c2ccccc2C)c1 | inactive: -13.3% |
| CCN(CC)CCSc1nnc2c3cc(F)ccc3n(C)c2n1 | inactive: 6.43% |
| O=S(=O)(O)c1ccc2nc(-c3ccccc3)[nH]c2c1 | inactive: -25.1% |
| CC(NC(CCc1ccccc1)C(=O)O)C(=O)N1C(=O)N(C)CC1C(=O)O (centres undefined) | inactive: -23.4% |
| CCOC(=O)c1c(C)[nH]c(CCC(=O)Nc2ccc(Cl)cc2C)c1C | inactive: -11.4% |
| Cc1ccc(CNCc2c(C(=O)O)n(Cc3ccc(C)cc3)c3cc(C)ccc23)cc1 | active: 98.3% |
| COC(=O)c1ccc(OC)c(CN2C(=O)N(c3ccc(C(C)=O)cc3)S(=O)(=O)c3ccccc32)c1 | inactive: -7.47% |
| Cc1ccc(-c2noc(CN(C(=O)COc3cc(C)cc(C)c3C)C(C)C)n2)cc1 | inactive: -5.5% |
| COc1ccc(-c2noc(CNS(=O)(=O)c3ccc(Br)cc3)n2)cc1OC | inactive: -8.22% |
| COC(=O)c1ccc(NC(=O)CN2C(=O)c3cccc4cccc2c34)cc1 | inactive: 4.5% |
| Cc1ccc(NC(c2ccc(Cl)cc2)c2nnc(-c3cccc(F)c3)o2)cc1C (centres undefined) | inactive: -10% |
| COc1ccc(-c2cn3nc(SCC(=O)Nc4ccc(C)c(Cl)c4)ccc3n2)cc1 | inactive: -10.7% |
| COC(=O)CCNC(=O)N1CCN(c2nnc(C)c3c(C)n(-c4ccc(Cl)cc4)nc23)CC1 | inactive: -3.15% |
| COc1ccc(OC)c(CCNC(=O)c2c3c(nc4ccccc24)C(=O)N(C2CCCCC2)C3)c1 | inactive: -19% |

| Compound | activation |
| --- | --- |
| CCN(CCCNC(=O)c1cc(Nc2ccccc2OC)nc2ccccc12)c1cccc(C)c1 | inactive: -5.53% |
| Cc1cc(C)c(NC(=O)COc2ccc3c(C)cc(=O)oc3c2)c(C)c1 | inactive: 13.6% |
| O=C(CSc1nc2c([nH]c3ccccc32)c(=O)n1-c1ccc(Cl)cc1)N1CCCC1 | inactive: -2.01% |
| CCOC(=O)Cn1c(=O)oc2cc(S(=O)(=O)N3CCN(c4ccc(C(C)=O)cc4)CC3)ccc21 | inactive: -0.311% |
| CCOc1ccc(S(=O)(=O)c2cn(Cc3cc(C)ccc3C)c3ccc(OCC)cc3c2=O)cc1 | inactive: -13.3% |
| COc1ccc(NC(=O)Cn2nc(C)c3nn(-c4ccc(Cl)cc4)c(C)c3c2=O)cc1 | inactive: -41.5% |
| COc1cccc(Nc2nc3cc(Cl)c(Cl)cc3nc2-n2nc(C)cc2C)c1 | inactive: 8.22% |
| CC1CCN(c2oc(/C=C/c3ccc(F)cc3)nc2C#N)CC1 | inactive: -14.7% |
| CCOc1ccc(NC(=O)c2cc(S(=O)(=O)N3CCOCC3)ccc2F)cc1 | inactive: 0.469% |
| CCCOC(=O)c1ccc(Cn2nnc3sc4c(c3c2=O)CCC(C)C4)cc1 (centres undefined) | inactive: -12.4% |
| COc1ccccc1CNC(=O)c1cnc(N2CCCC2)nc1C | inactive: -4.84% |
| COc1ccc(CCNC(=O)CCn2c(=O)c3ccccc3n(CC(=O)Nc3ccc(C)cc3C)c2=O)cc1OC | inactive: -0.508% |
| O=C(Nc1ccccc1)C1CCN(S(=O)(=O)c2ccc3[nH]c4c(c3c2)CCCCC4)CC1 | inactive: 5.52% |
| COc1ccccc1NC(=O)C1=C(C)Nc2nc(SCc3ccccc3)nn2C1c1cccnc1 (centres undefined) | inactive: -6.69% |
| CCc1c(C)sc2c1CCN(C(=O)Nc1ccc(F)c(Cl)c1)C2c1ccc(F)cc1 (centres undefined) | inactive: 26.4% |
| CCOc1ccc(-c2nc(Cn3c(=O)cc(C)c4c(C)nn(-c5ccc(C)cc5)c43)c(C)o2)cc1 | inactive: 25.3% |
| Cc1cc(C)cc(NC(=O)Cn2nnc(-c3nc(-c4ccncc4)no3)c2N)c1 | inactive: -1.05% |
| O=C(O)C1=CCCNC1 | inactive: 5.55% |
| Cc1ccc(N2CCN(S(=O)(=O)c3ccc(F)c(C(=O)Nc4ccc(Cl)cc4Cl)c3)CC2C)cc1 (centres undefined) | inactive: -20.6% |
| Cc1cc2c(cc3c(SCc4nc(-c5ccccc5)oc4C)nnc(C)n32)o1 | inactive: -26.6% |
| CCn1ccc2c(OCC(=O)Nc3ccccc3C)cccc2c1=O | inactive: 44.7% |

| Compound | activation |
| --- | --- |
| CCOC(=O)c1ccc(NC(=O)Nc2cc3c(cc2N2CCCC2)n(C)c(=O)n3C)cc1 | inactive: -10% |
| COc1ccc(N2CCN(C(=O)c3cccc(NC(=O)c4nsc5ccccc45)c3)CC2)cc1 | inactive: 1.26% |
| O=C(Nc1ccc2nc(SCC(=O)N3CCCc4ccccc43)sc2c1)c1ccccc1 | inactive: -20.2% |
| Cc1ccc(C(=O)O[C@H](C(=O)O)[C@@H](OC(=O)c2ccc(C)cc2)C(=O)O)cc1 (tested in a mixture with another compound) | inactive: -7.75% |
| COc1ccc(S(=O)(=O)Nc2ccc3c(c2)CCCN3S(=O)(=O)c2ccc(C)cc2)cc1F | inactive: -24% |
| COc1cccc(CNC(=O)c2cc(C)nc3c2c(C)nn3-c2cccc(F)c2)c1 | inactive: -17.7% |
| COc1ccccc1N1CCN(CCCCNS(=O)(=O)c2cccc3c(N(C)C)cccc23)CC1 | inactive: 8.23% |
| Cc1cc(CC(=O)O)n(C)c1C(=O)c1ccc(Cl)cc1 | inactive: -9.19% |
| Nc1c(C(=O)Nc2ccc(F)c(F)c2)sc2nc(-c3ccncc3)ccc12 | inactive: -7.05% |
| NCCNC(=O)c1ncsc1-c1cccc(F)c1 | inactive: -11.5% |
| COC(=O)c1cc(NC(=O)c2nn(C)c3c2COc2ccccc2-3)cc(C(=O)OC)c1 | inactive: -9.39% |
| O=C(COCc1cc(-c2ccc3c(c2)OCO3)on1)N1CCN(c2ccccc2)CC1 | inactive: -7.46% |
| COc1ccccc1NC(=O)C1=C(C)Nc2nc(SCc3ccccc3F)nn2C1c1cccs1 (centres undefined) | inactive: 33.7% |
| COc1ccc(-n2nnnc2C2CCN(S(=O)(=O)c3ccc(C(C)(C)C)cc3)CC2)cc1 | inactive: -22.8% |
| CCC(CC)C(=O)Nc1nc2c(s1)CC(C)CC2 (centres undefined) | inactive: 14.5% |
| Cc1ccc(S(=O)(=O)NCCc2cn3ccsc3n2)cc1 | inactive: -0.744% |
| CN(C(=O)c1cc2c(s1)-c1ccc(Cl)cc1SC2)c1cccc(C(F)(F)F)c1 | inactive: 22.6% |
| O=C(CN1C(=O)COc2ccc(S(=O)(=O)N3CCCCC3)cc21)NCc1ccc(Cl)cc1 | inactive: -16.7% |
| COc1ccc(CCNC(=O)c2cnc3sc(N4CCCC4)nn3c2=O)cc1OC | inactive: -5.19% |
| CSCCC(NS(=O)(=O)c1ccc2c(c1)oc(=O)n2C)C(=O)N1CCN(c2cccc(Cl)c2)CC1 (centres undefined) | inactive: -24.5% |
| Cc1ccc(CNC(=O)c2nnn(CC(=O)Nc3cc(C)ccc3C)c2N)cc1 | inactive: -1.16% |
